The text below walks through data of the supplement of paper PMC3334620.

In all, about 33,000 sequences were measured (“E-score (-0.5 to 0.5)”: median about -0.017, highest 2% from about 0.3 on). Some of the results follow.

The assay concerns the target T1, Sut1 (UniProt P53032).
T1 sequence: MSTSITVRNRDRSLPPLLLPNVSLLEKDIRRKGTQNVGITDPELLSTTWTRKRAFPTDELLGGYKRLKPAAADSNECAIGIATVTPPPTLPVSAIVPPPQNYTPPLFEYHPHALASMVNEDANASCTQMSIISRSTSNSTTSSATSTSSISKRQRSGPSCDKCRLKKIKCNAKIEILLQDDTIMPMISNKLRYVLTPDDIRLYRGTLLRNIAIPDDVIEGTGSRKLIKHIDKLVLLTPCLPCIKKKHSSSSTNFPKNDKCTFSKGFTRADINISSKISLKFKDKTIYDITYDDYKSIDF
Description: PBM E-score (8-mer binding enrichment) (E-score (-0.5 to 0.5)); higher = stronger / more preferred TF binding; most listed sequences are background and not binding sites. Particulars: protein concentration: 200 nM; construct: GST-full length. A digest of the protocol:
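For each ungapped eight-base word taken together with its reverse complement, the Universal PBM Analysis Suite assigned an E-score. Binding data came from GST-tagged yeast transcription factors, applied at about 100-200 nM, on universal all-10-mer Agilent arrays made double-stranded by primer extension. Fluorescent anti-GST marked bound protein, and scans were normalised with masliner.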
For GTGAGGGA, the “PBM E-score” value was -0.261.
On to TAAGCACA, for which the “PBM E-score” value amounted to 0.235.
The value for GTCCTCAA was 0.0264; that for AATTCTGA was 0.129; that for CGGGTCCC was -0.356.
The result for GGTTTGGA reads 0.00586.
The value for ACAGCCGG was 0.0561; that for ACCAAGCA was -0.0291.
Take CATATTAA: the “PBM E-score” value is 0.183.
The result for CCATTTTC reads 0.0901; that for ACCGCCTA, -0.167.
The result for ACAGCACC reads -0.121; that for AGTTATGC, 0.186; that for ACTGTTAC, -0.104.
The result for AAGCTCGA reads 0.0269.
Turning to ATGTCTGA, the “PBM E-score” value was -0.135.
The result for CAGTGAAA reads 0.138; that for AGTTATAA, 0.155; that for ATGTCGTG, -0.183.
The value for CGTACAAG was -0.0978.
In the case of CGCATGTA, the “PBM E-score” value was -0.208.
With CTAATTCA, the “PBM E-score” value turned out to be 0.0247.
The result for CGAATCCG reads 0.184.
Turning to CAGATATA, the “PBM E-score” value came to 0.0963.
The result for CACGCTCC reads -0.281; that for CCCCCCCG, -0.43; that for ATTCGCGA, -0.0269.
The result for ATAGTCAT reads 0.0383; that for AAAAGCCT, -0.134.
The value for ATTCAACA was 0.162.
In the case of AGCCTTTC, the “PBM E-score” value was -0.197.
In the case of GAAGTCAA, the “PBM E-score” value amounted to 0.0107.
Consider AATCCTTA, for which the “PBM E-score” value was 0.0537.
In the case of CCTTTAAC, the “PBM E-score” value was determined as 0.174.
The result for ATACACTA reads 0.167.
For the sequence AGCCTCCC, the “PBM E-score” value is -0.215.
The result for CCCGGGCC reads 0.026; that for GTGTATAA, -0.112.
The value for GCCCTCGC was -0.292; that for ATGTGGCG was -0.155; that for CACACTCA was 0.138.
The result for AATAGGGT reads 0.178; that for CCGACGCC, 0.0242; that for CCGACTGA, 0.122.
With CCTGATTA, the “PBM E-score” value was determined as 0.144.
The result for AGATCGGA reads 0.348; that for ACAGTACA, 0.0765.
The result for AATTGTCC reads 0.101; that for ACACAAAG, 0.0367; that for CCGCACAC, -0.238.
Turning to CAAATCAA, the “PBM E-score” value was found to be 0.198.
The value for TCGAGCGA was -0.0279; that for CAAGTATG was 0.0612.
Turning to GAATAGCA, the “PBM E-score” value is 0.103.
The value for GTAGTTTA was 0.239; that for CCTTTTTC was 0.0433.
The result for AGACAGTG reads -0.124.
The value for AGGGAATG was -0.153; that for CCTGTCGC was -0.27.
Turning to AGAATTCT, the “PBM E-score” value was found to be 0.15.
The result for ATGTCTGG reads 0.0121; that for GAAATCTA, 0.191; that for AGCACAGA, 0.125.
For the sequence AGACTTTA, the “PBM E-score” value was -0.111.
In the case of ACCTAACA, the “PBM E-score” value came to 0.162.
The value for CAAGGACG was -0.156; that for ACTTGAGG was -0.0146.
Consider GCTGCACA, for which the “PBM E-score” value was -0.0918.
ACCCCGTA: the “PBM E-score” value amounted to 0.137.
In the case of AAAAAAAC, the “PBM E-score” value is 0.159.
The result for GAAACGAC reads 0.0454.
With CCCCTGCG, the “PBM E-score” value was -0.407.
The result for GACTGTGC reads -0.072; that for CCGACCCA, 0.0491; that for CGCCGGCA, 0.102.
As for ACGGGCCA, the “PBM E-score” value was -0.0563.
The value for CAAAGGCC was -0.0635; that for ACTGAACG was -0.193.
GTGACAGA: the “PBM E-score” value is -0.121.
On to CTTGAGGC, for which the “PBM E-score” value is -0.0356.
The value for AACAGTAC was 0.0343; that for ACGCTGGC was -0.143.
The value for AAGTACGC was -0.0232; that for ATTGTACA was -0.00023; that for TTATGCAA was -0.0123.
The result for CCATATCG reads 0.00133.
